# Measurements published in PubChem BioAssay AID504333 (National Center for Advancing Translational Sciences (NCATS), 2011).
# In all, about 360,000 compounds went through this assay and about 16,000 (4.4%) were called active. The shares of active, inactive and inconclusive entries below differ from those in the screen. Calls follow the shape of the dose curve; as a rule, active = well fitted inhibition curve with a large enough effect; inconclusive = small, poorly fitted or top-dose-only effect; inactive = no such curve, though single readings can be large or run the other way. Potencies of inconclusive entries are doubtful fits and often do not repeat.
# Molecular target: Bromodomain adjacent to zinc finger domain protein 2B (Homo sapiens) (UniProt Q9UIF8)
# UniProt Q9UIF8, sequence (Q9UIF8 whole entry, looked up, the tested form may be a part): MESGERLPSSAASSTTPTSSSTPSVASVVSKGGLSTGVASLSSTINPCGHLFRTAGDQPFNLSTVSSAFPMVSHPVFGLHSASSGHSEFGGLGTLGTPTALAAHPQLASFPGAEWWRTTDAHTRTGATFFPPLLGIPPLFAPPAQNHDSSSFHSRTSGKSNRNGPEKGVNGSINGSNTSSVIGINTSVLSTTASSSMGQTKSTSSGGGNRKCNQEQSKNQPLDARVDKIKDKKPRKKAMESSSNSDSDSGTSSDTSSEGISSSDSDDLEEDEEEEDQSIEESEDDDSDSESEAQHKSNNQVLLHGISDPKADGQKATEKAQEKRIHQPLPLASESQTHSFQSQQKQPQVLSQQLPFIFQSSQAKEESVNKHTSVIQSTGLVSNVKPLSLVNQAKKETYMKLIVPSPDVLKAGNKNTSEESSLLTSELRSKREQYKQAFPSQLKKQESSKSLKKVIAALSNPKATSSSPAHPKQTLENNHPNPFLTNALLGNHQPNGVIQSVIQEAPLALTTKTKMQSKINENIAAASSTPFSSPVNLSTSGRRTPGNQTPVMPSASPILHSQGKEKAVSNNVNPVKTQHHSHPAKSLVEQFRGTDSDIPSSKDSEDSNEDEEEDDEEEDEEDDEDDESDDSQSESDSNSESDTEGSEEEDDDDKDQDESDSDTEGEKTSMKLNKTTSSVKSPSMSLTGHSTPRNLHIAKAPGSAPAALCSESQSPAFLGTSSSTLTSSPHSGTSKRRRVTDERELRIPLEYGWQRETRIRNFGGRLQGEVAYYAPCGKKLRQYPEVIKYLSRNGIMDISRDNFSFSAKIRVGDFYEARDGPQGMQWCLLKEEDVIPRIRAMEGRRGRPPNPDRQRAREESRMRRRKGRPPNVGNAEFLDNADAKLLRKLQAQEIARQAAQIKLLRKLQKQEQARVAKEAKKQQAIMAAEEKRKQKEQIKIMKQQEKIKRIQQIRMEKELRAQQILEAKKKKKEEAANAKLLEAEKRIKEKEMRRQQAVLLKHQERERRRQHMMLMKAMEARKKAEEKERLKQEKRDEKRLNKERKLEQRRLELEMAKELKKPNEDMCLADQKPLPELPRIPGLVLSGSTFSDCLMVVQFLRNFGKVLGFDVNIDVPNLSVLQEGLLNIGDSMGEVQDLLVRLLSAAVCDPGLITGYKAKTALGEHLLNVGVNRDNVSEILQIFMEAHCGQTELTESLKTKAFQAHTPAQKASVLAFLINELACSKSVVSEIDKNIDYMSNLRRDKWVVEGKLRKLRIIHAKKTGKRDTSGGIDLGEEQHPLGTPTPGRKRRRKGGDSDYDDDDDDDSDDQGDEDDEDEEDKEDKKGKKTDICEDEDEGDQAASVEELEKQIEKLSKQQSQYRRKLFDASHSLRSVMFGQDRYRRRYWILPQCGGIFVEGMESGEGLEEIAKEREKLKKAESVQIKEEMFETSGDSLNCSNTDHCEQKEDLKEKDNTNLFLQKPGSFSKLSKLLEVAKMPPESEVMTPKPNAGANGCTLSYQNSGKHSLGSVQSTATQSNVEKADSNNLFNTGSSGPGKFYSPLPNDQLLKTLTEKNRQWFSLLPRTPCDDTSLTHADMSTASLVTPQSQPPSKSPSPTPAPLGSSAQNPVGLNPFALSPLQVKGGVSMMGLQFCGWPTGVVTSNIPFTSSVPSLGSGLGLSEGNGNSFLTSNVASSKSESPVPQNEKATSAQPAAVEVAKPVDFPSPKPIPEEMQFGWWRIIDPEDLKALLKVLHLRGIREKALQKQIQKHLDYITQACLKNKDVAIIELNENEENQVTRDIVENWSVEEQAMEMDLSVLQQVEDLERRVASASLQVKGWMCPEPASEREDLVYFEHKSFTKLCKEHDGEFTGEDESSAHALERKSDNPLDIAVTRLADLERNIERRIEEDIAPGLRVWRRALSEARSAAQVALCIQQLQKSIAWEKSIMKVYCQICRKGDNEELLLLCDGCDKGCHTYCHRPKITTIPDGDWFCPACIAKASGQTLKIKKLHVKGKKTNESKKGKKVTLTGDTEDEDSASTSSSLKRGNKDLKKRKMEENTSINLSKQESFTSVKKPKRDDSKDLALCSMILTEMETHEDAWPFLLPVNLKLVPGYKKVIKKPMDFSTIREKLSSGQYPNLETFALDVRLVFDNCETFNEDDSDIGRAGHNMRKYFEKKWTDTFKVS
# Assay: qHTS Assay for Inhibitors of BAZ2B; also: nearly all actives have a fitted effect of over 60% in size
# Details: AlphaScreen BAZ2B-H3K14Ac peptide displacement; series mostly up to 114 µM
# Outline: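 In this displacement format the biotinylated H3(5-23) peptide acetylated at Lys14 serves as ligand at 50 nM, with BAZ2B at 50 nM in PBS pH 7.4 containing 0.01% Tween-20. Donor and acceptor beads are 10 ug/mL final.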
# Potency is read from the fitted curve at half-maximal effect; tags tell the direction and shape of the fitted curve.
row,Structure (SMILES),Potency
1,Cc1nc2ccc(NC(=S)NCc3ccccc3)cc2nc1C,"inconclusive: 79.4 µM [inhibitor, single point]"
2,COc1ccc2cc(C(=O)C3CCCN(Cc4cnc(C)s4)C3)ccc2c1 (stereo not given),"inconclusive: 79.4 µM [inhibitor, single point]"
3,O=S(=O)(Nc1ccc(O)c(Sc2nc3ccccc3s2)c1)c1cccc2ccccc12,inactive
4,CCOC(=O)C1CCCN(C(=O)CSc2ccc(Br)cc2)C1 (stereo not given),inactive
5,CN(C)CCNc1oc(COc2ccc(-c3ccccc3)cc2)nc1C#N,"inconclusive: 50.1 µM [inhibitor, partial curve]"
6,Cc1cc(C)c(OCC(=O)N(Cc2ccc(N(C)C)cc2)C2CCS(=O)(=O)C2)c(C)c1 (stereo not given),"inconclusive: 50.1 µM [inhibitor, partial curve]"
7,Cc1ccc(N=Cc2nc(/C=C/c3cccc([N+](=O)[O-])c3)oc2O)cc1,inactive
8,O=C(COc1ccc2c(c1)OCO2)Nc1ccc2c(c1)oc1ccccc12,"inconclusive: 89.1 µM [inhibitor, single point]"
9,O=[N+]([O-])c1ccc2[nH]ncc2c1,"inconclusive: 79.4 µM [inhibitor, single point]"
10,CC(=O)c1ccc(NC(=O)c2ccc(C)c(Br)c2)cc1,"inconclusive: 89.1 µM [inhibitor, single point]"
11,CN(C1CCS(=O)(=O)C1)S(=O)(=O)c1cccs1 (stereo not given),inactive
12,COc1ccc(OC)c(NC(=O)c2ccc(-c3nc(CSc4ccccc4)c(C)o3)cc2)c1,"inconclusive: 89.1 µM [inhibitor, single point]"
13,COC(=O)c1cc2oc3ccccc3c2n1Cc1nc(-c2cccc(Cl)c2)oc1C,inactive
14,Cc1ccc(CNC(=O)CNC(=O)[C@@H]2Cc3ccccc3CN2)cc1,"inconclusive: 79.4 µM [inhibitor, single point]"
15,COc1ccc(C(=O)c2ccc(N3CCOCC3)c([N+](=O)[O-])c2)cc1,"inconclusive: 70.8 µM [inhibitor, single point]"
16,CCN(CC)S(=O)(=O)c1cccc(C(=O)N/N=C/c2ccccc2OCC(=O)O)c1,active: 50.1 µM
17,Cc1ccc(CNC(=O)[C@H]2C[C@@H]2[C@H](NP(=O)(c2ccccc2)c2ccccc2)c2ccccc2)o1,"inconclusive: 89.1 µM [inhibitor, single point]"
18,CC1CCN(C(=S)NC(=O)c2ccc(C(C)(C)C)cc2)CC1,"inconclusive: 22.4 µM [inhibitor, full curve]"
19,Cc1cccc(-c2ccc(C=Nc3c(C)n(C)n(-c4ccccc4)c3=O)o2)c1,"inconclusive: 79.4 µM [inhibitor, single point]"
20,C#CCOCCOCCOCCNc1nc(N2CCN(C(=O)Cn3cc(CCCN=C(N)N)nn3)CC2)nc(N2CCN(C(=O)[C@H]([C@@H](C)CC)n3cc(CCCCN)nn3)CC2)n1,inactive
21,CCCC(c1nnnn1Cc1ccc(OC)cc1)N1CCN(c2ccccc2OC)CC1 (stereo not given),"inconclusive: 89.1 µM [inhibitor, single point]"
22,CC(C)C[C@@H](COc1ccccc1)N1CCN(Cc2ccccc2)CCC1=O,"inconclusive: 89.1 µM [inhibitor, single point]"
23,CCc1nc2ccccc2c(C(=O)OCC(=O)NC(=O)c2cccn2C)c1C,"inconclusive: 28.2 µM [inhibitor, full curve]"

row,Structure (SMILES),Potency
1,COc1ccc(Cn2cc(C(=O)c3ccc(Cl)cc3)c(=O)c3cc4c(cc32)OCO4)cc1,inactive
2,O=C(Nc1ccc(Cl)c([N+](=O)[O-])c1)c1ccco1,"inconclusive: 79.4 µM [inhibitor, single point]"
3,Cc1cccc(NCc2nc3ccccc3n2Cc2ccccc2)c1,"inconclusive: 39.8 µM [inhibitor, full curve]"
4,Cc1ccc(Cl)cc1NC(=S)Nn1cnnc1,"inconclusive: 39.8 µM [inhibitor, partial curve]"
5,COc1ccc(OCCCC(=O)Nc2nc(-c3ccccn3)cs2)cc1,active: 50.1 µM
6,Oc1cc(Nc2ccncc2)cc2cccnc12,active: 3.98 µM
7,C/C(=N\NC(=O)C(C)Oc1ccc([N+](=O)[O-])cc1)c1ccccn1 (stereo not given),active: 25.1 µM
8,N#CCCNc1ccc(OCCC#N)cc1,"inconclusive: 28.2 µM [inhibitor, single point]"
9,CC(OC(=O)c1ccccc1NCCO)C(=O)NCC(=O)Nc1ccc(F)c(F)c1F (stereo not given),inactive
10,CCN(CC)c1ccc(C2Nc3cccc4cccc(c34)N2)c(O)c1,active: 11.2 µM
11,Cc1ccc(-c2cc(-c3ccco3)c3c(N)c(C(=O)NN)oc3n2)cc1,"inconclusive: 70.8 µM [inhibitor, partial curve]"
12,Cc1ccc(N=Nc2ccc(O)c(P(=O)(c3ccccc3)c3ccccc3)c2)cc1,"inconclusive: 15.8 µM [inhibitor, full curve]"
13,CCc1nnc(NS(=O)(=O)c2ccc(NC(=S)NC(=O)/C=C/c3ccccc3)cc2)s1,"inconclusive: 89.1 µM [inhibitor, single point]"
14,COC(=O)c1ccccc1OCCCN(C)C,active: 79.4 µM
15,CN(/N=C/c1ccc2c(c1)OCO2)c1ccccc1,active: 28.2 µM
16,CCOc1cccc(CN2CCCC(N3CCc4cc(OC)c(OC)cc4C3)C2)c1O (stereo not given),"inconclusive: 89.1 µM [inhibitor, single point]"
17,BrC(=C\c1ccccc1)/C=N/N1CCN(Cc2ccccc2)CC1,"inconclusive: 31.6 µM [inhibitor, full curve]"
18,Cc1cc(C)cc(C(=O)NCC(=O)OCC(=O)N2CCN(S(=O)(=O)c3ccc4ccccc4c3)CC2)c1,inactive
19,CN(C)Cc1ccccc1Sc1cccc2ccccc12,"inconclusive: 44.7 µM [inhibitor, partial curve]"
20,CCN(CC)c1ccc(/C=C2/C(=O)N(c3ccc([N+](=O)[O-])cc3)N=C2N2CCOCC2)cc1,"inconclusive: 79.4 µM [inhibitor, single point]"
21,Cc1ccc(-c2nc3ccccn3c2Nc2c(C)cccc2C)o1,active: 28.2 µM
22,CC(=O)c1c(C)[nH]c(C(=O)Nc2ccc(Cl)c(S(=O)(=O)N3CCOCC3)c2)c1C,"inconclusive: 89.1 µM [inhibitor, single point]"
